Measured values taken from patent US20250136696A1 (HARBOUR BIOMED SHANGHAI, published 2025).

T1: biotinylated human B7-H7 protein (Acro Biosystems, B77-H82F5) (human, UniProt Q9UM44 23-344, biotinylated)
T1 construct: Bought soluble protein; also called biotin-B7H7 protein
T1 sequence (looked up): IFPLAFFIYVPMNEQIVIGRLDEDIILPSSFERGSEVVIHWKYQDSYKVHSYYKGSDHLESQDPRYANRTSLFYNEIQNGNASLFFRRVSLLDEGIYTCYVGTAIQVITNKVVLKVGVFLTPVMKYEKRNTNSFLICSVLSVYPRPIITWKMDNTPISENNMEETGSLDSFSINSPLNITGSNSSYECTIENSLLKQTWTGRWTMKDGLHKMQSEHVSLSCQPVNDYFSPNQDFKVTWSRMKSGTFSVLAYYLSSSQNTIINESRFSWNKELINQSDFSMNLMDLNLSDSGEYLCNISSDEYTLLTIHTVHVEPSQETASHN

T2: human B7-H7 on the cell surface (human, UniProt Q9UM44 23-414)
T2 construct: whole, on cells; also called hB7-H7; hu B7-H7
T2 sequence (looked up): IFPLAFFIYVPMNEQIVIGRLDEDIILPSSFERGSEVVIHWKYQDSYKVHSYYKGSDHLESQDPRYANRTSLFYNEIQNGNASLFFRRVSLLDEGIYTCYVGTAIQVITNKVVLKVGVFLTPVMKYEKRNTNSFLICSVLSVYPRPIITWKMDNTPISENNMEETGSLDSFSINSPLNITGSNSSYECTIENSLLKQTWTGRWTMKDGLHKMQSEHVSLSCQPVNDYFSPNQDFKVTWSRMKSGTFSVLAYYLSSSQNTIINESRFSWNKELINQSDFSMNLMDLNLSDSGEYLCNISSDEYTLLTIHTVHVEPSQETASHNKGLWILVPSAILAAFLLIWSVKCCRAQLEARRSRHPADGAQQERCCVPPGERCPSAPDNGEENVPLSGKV

T3: Human B7-2/CD86 protein, Fc tag (Acro, CD6-H5257) (human, UniProt P42081 26-247)
T3 construct: Bought
T3 sequence (looked up): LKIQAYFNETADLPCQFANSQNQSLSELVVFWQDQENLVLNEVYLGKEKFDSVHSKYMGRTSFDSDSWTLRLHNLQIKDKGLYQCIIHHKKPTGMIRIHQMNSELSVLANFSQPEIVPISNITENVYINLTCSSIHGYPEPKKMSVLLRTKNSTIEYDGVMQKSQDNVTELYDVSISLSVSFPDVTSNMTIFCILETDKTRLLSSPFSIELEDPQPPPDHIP


Key:
[1] = target: T1, biotinylated human B7-H7 protein (Acro …); assay: flow cytometry, blocking of biotinylated human B7-H7 binding to CHO-K1/KIR3DL3 cells
Excerpt: This example was intended to study the in vitro blocking activity of human anti-B7-H7 antibodies against the binding of human B7-H7 to its receptor KIR3DL3. A CHO-K1 cell (CHO-K1/KIR3DL3, Harbour BioMed US, Inc.) overexpressing human KIR3DL3 was used in experiments at the cellular level where human B7-H7/human KIR3DL3 binding was blocked. Briefly, the CHO-K1/KIR3DL3 cells were digested and resuspended in PBS containing 2% BSA. The cells were adjusted to a cell density of 1×10⁶ cells/mL. […] The cells were incubated at 4° C. for 1 hour in the dark. […] The cells were rinsed twice by adding pre-chilled PBS containing 2% BSA at 100 μL/well, and were centrifuged at 500 g at 4° C. for 5 minutes, and the supernatant was discarded. A fluorescent secondary antibody (PE Streptavidin, BD, Cat #: 554061, 1:200) was added at 100 μL/well, and the cells were incubated at 4° C. for 30 minutes in the dark. The cells were washed twice by adding pre-chilled PBS at 200 µL/well, and centrifuged at 500 g at 4° C. for 5 minutes, and the supernatant was discarded. Finally, the cells were resuspended in pre-chilled PBS at 200 μL/well, and the fluorescence signal values were read using an ACEA Novocyte3000 flow cytometer. IC50 was calculated.

[2] = target: T2, human B7-H7 on the cell surface; assay: flow cytometry, LS180 cells
Experimental: This example was intended to study the in vitro activity of H2L2 monoclonal antibodies against human B7-H7 in binding to human/cynomolgus monkey B7-H7. Since homologous molecules of B7-H7 were not present in mice, the detection was not performed. […] The cells were adjusted to a cell density of 1×10⁶ cells/mL, respectively. The cells were seeded in a 96-well V-bottom plate (Corning, #3894) at 100 μL/well, and the antibody to be tested at 2× final concentration with 3-fold concentration gradient dilution was then added at 100 μL/well. The cells were incubated at 4° C. for 2 hours in the dark. After the incubation, the cells were rinsed twice by adding pre-chilled PBS containing 2% BSA at 100 μl/well, and centrifuged at 500 g at 4° C. for 5 minutes, and the supernatant was discarded. […] The cells were washed twice by adding pre-chilled PBS containing 2% BSA at 100 μL/well, and centrifuged at 500 g at 4° C. for 5 minutes, and the supernatant was discarded. Finally, the cells were resuspended in pre-chilled PBS containing 2% BSA at 200 μL/well, and the fluorescence signal values were read using an ACEA Novocyte3000 flow cytometer.

[3] = target: T3, Human B7-2/CD86 protein, Fc tag (Acro, …); assay: ELISA on coated B7 family protein
Experimental: B7 family proteins (see Table 7 for details) were respectively diluted to […] with PBS, added into a 96-well plate (Corning, #9018) at 100 μl/well, and incubated at 4° C. overnight. After the liquid was discarded, the plate was washed 3 times with a PBST buffer (pH 7.4, containing 0.05% tween-20), 250 μl of blocking solution containing 2% BSA was added, and the plate was incubated for 1 hour at 37° C. The blocking solution was discarded, the plate was washed 3 times with PBST buffer (pH 7.4, containing 0.05% Tween-20), the antigen-binding protein to be tested was diluted to 2 concentrations of 10 nM and 1 nM, 100 μl of the diluted antigen-binding protein was added to each well, and the plate was incubated for 1 hour at 37° C., with the isotype antibody as the control. After the plate was washed 3 times with PBST buffer (pH 7.4, containing 0.05% Tween-20), goat anti-human HRP secondary antibody (Invitrogen, #A18805) diluted 5000 times was added, and the plate was incubated at 37° C. for 1 hour in the dark. After the plate was washed 3 times with PBST buffer (pH 7.4, containing 0.05% tween-20), TMB (Biopanda, #TMB-S-003) was added at 100 μl/well, and the plate was placed at room temperature for about 30 minutes in the dark; and a stop solution (BBI life sciences, #E661006-0200) was added to each well at 50 μl/well to stop the reaction, and the absorbance at 450 nm (OD450) was determined in a microplate reader (PerkinElemer, #Enspire).

IC50 [1] [nM]	Maximum inhibition rate (%) [1] [%]	EC50 [2] [nM]	Maximum MFI [2] [MFI]	binding result [3]	Binder
6.97	101	0.036	19700	no binding (tested: 10 nM)	PR004261 (antibody, human IgG1, kappa, Variant of PR003249; Human IgG1 with LALA mutation in Fc) heavy: QVQLVESGGGVVQPGRSLRLSCAASGFTFSDYGIHWVRQAPGKGLEWVAVIWYDGSDKYYADSVRGRFTISRDNSKNTLSLQMNSLRVEDTAVYYCARDRSSGAMGYFVYWGQGTLVTVSSASTKGPSVFPLAPSSKSTSGGTAALGCLVKDYFPEPVTVSWNSGALTSGVHTFPAVLQSSGLYSLSSVVTVPSSSLGTQTYICNVNHKPSNTKVDKKV[not shown - human IgG1 Fc with changes] light: [not shown - about 100 residues][not shown - about 100 residues]
6.54	100	0.048	19200	no binding (tested: 10 nM)	PR004262 (antibody, human IgG1, kappa, Variant of PR003259; Human IgG1 with LALA mutation in Fc) heavy: QVQLVESGGGVVQPGRSLRLSCAASGFTFSNYGMHWVRQVPGKGLEWVAVIWYDGSEKDYADSVKGRFTISRDNSKNTLYLQMNSLRVEDTAVYYCAKDLISGIYYVDHWGQGTLVTVSSASTKGPSVFPLAPSSKSTSGGTAALGCLVKDYFPEPVTVSWNSGALTSGVHTFPAVLQSSGLYSLSSVVTVPSSSLGTQTYICNVNHKPSNTKVDKKV[not shown - human IgG1 Fc with changes] light: DIQMTQSPSSLSASVGDRVTITCRASQGISNYLAWYQQKPGKVPKLLIYAASTLQSGVPSRFSGSGSGTDFTLTISSLQPEDVATYYCQKYNSAPFTFGPGTKVDIKRTVAAPSVFIFPPSDEQLKSGTASVVCLLNNFYPREAKVQWKVDNALQSGNSQESVTEQDSKDSTYSLSSTLTLSKADYEKHKVYACEVTHQGLSSPVTKSFNRGEC
7.81	108	0.066	20300		PR003259 (antibody, human IgG1, kappa, Human IgG1; also called 68F3A2) heavy: QVQLVESGGGVVQPGRSLRLSCAASGFTFSNYGMHWVRQVPGKGLEWVAVIWYDGSEKDYADSVKGRFTISRDNSKNTLYLQMNSLRVEDTAVYYCAKDLISGIYYVDHWGQGTLVTVSS[not shown - human IgG1 constant region] light: DIQMTQSPSSLSASVGDRVTITCRASQGISNYLAWYQQKPGKVPKLLIYAASTLQSGVPSRFSGSGSGTDFTLTISSLQPEDVATYYCQKYNSAPFTFGPGTKVDIKRTVAAPSVFIFPPSDEQLKSGTASVVCLLNNFYPREAKVQWKVDNALQSGNSQESVTEQDSKDSTYSLSSTLTLSKADYEKHKVYACEVTHQGLSSPVTKSFNRGEC
